Structures can show the parent of a compound that is named as a salt. Whole data set: some 2,000 compounds, median “fractional viability relative to vehicle” near 0.91, cut for the lowest 2% near 0.045. The list shows a part of the results.
Test system: TYKNU
Experiment: fractional viability relative to vehicle; TYKNU is a high-grade serous ovarian cancer line; higher = less growth inhibition
Conditions: 72 h
Outline: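 Drug treatment lasted 72 h, with cells grown at 37 °C in 5% CO2 in RPMI 1640 supplemented with 10% FBS. Beforehand, TYKNU control cells or their lentiCRISPRv2 knockout derivatives had been seeded at 500 cells per well into drug-stamped 384-well plates carrying a ~2100-compound library at 2 or 10 μM, in duplicate. Viability came from Cell Titer Glo luminescence, with averaged duplicate treatment wells normalised to duplicate control wells in the same plate position.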

[1] = 2uM, genotype: DNM1L knockout (sgDNM1L #1)
[2] = 2uM, genotype: sgCTRLA1 (non-targeting control)
[3] = 10uM, genotype: DNM1L knockout (sgDNM1L #1)
[4] = 10uM, genotype: sgCTRLA1 (non-targeting control)

Compound | fractional viability [1] | fractional viability [2] | fractional viability [3] | fractional viability [4]
Cc1ccc(NC(=O)c2cccc(N(C)C)c2)cc1NC(=O)c1ccc(O)cc1 | 1.12 | 1.07 | 0.938 | 0.98
O=C1NCCc2[nH]c(-c3ccncc3)cc21 | 0.853 | 0.85 | 0.286 | 0.305
COc1ccc(S(=O)(=O)Nc2cccnc2Nc2ccc(O)cc2)cc1 | 0.739 | 0.875 | 0.195 | 0.162
CCNC(=O)CCC/C=C\C[C@@H]1[C@@H](/C=C/[C@@H](O)CCc2ccccc2)[C@H](O)C[C@@H]1O [Bimatoprost] | 0.998 | 1.09 | 0.99 | 1.06
COC(=O)C1=C(C)NC(C)=C(C(=O)OC2CCCN(Cc3ccccc3)C2)C1c1cccc([N+](=O)[O-])c1 (configuration not stated) [Benidipine HCl] | 0.974 | 0.954 | 0.606 | 0.883
CC1(C)O[C@@H]2C[C@H]3[C@@H]4CCC5=CC(=O)C=C[C@]5(C)[C@H]4[C@@H](O)C[C@]3(C)[C@]2(C(=O)CO)O1 [Desonide] | 1.02 | 1.19 | 0.987 | 1.16
O=C(O)c1ccc2c(c1)nc(Nc1cccc(Cl)c1)c1ccncc12 [CX-4945 (Silmitasertib)] | 0.969 | 0.999 | 0.275 | 0.324
NCCCCCNCC12CC3CC(CC(C3)C1)C2 [IEM 1754 dihydrobroMide] | 0.967 | 0.972 | 0.91 | 0.898
CC1(C)CCC[C@]2(C)[C@H]3CC(=O)O[C@]3(C)CC[C@@H]12 [Sclareolide] | 0.87 | 1.08 | 0.822 | 1.02
COc1c(N2C[C@@H]3CCCN[C@@H]3C2)c(F)cc2c(=O)c(C(=O)O)cn(C3CC3)c12 [Moxifloxacin HCl] | 0.939 | 1.18 | 1.09 | 1.21
CC(=O)OCC(=O)[C@@]1(O)[C@H](C)C[C@H]2[C@@H]3CCC4=CC(=O)C=C[C@]4(C)[C@@]3(F)[C@@H](O)C[C@@]21C [Dexamethasone Acetate] | 1.21 | 1.18 | 1.05 | 1.14
COc1ccc(C(=O)CC(=O)c2ccc(C(C)(C)C)cc2)cc1 [Avobenzone] | 0.959 | 1.21 | 0.773 | 0.925
Nc1nc2c(ncn2COCCO)c(=O)[nH]1 [Aciclovir] | 1.15 | 1.06 | 0.937 | 0.984
CC(C)NCC(O)c1ccc(O)c(O)c1 (configuration not stated) [Isoprenaline HCl] | 0.914 | 1.1 | 0.836 | 1.1
CS(=O)(=O)N1CCN(Cc2cc3nc(-c4cccc5[nH]ncc45)nc(N4CCOCC4)c3s2)CC1 | 0.627 | 0.588 | 0.272 | 0.249
COc1ccc2[nH]c([S@@+]([O-])Cc3ncc(C)c(OC)c3C)nc2c1 [Esomeprazole Sodium] | 1.26 | 1.19 | 1.31 | 1.18
COc1ccc2[nH]c([S@@+]([O-])Cc3ncc(C)c(OC)c3C)nc2c1 [Esomeprazole Magnesium] | 1.16 | 1.21 | 0.985 | 1.17
Cc1cc(N2CCOCC2)cc2[nH]c(-c3c(NC[C@@H](O)c4cccc(Cl)c4)cc[nH]c3=O)nc12 | 0.488 | 0.845 | 0.35 | 0.472
